Certain results were filed several times, with different values. This is not the full list of results. There may be further records. The records of an entry are repeats in other runs, samples, wells, individuals or studies. Marks such as (2×) give the number of equal values in this list. A date in brackets names the month of the test.
Test system: 168753-222-R-J1-PDC complex spheroid viability
Test: Anticancer human tumor 168753-222-R-J1-PDC patient-derived bladder carcinoma cell line growth inhibition [CLK]
Settings: for IC50: compound alone; for viability, T/C: stronger effect = lower value
Text: A high-throughput screen of multi-cell type tumor spheroids was designed to identify active combinations of […] and targeted small molecules. Complex spheroids include a stromal component modeled by human endothelial cells (HUVEC) and fibroblasts modeled by human mesenchymal stem cells (MSCs). The concentration ranges selected for each drug and investigational agent were based upon clinically achievable concentrations if the clinical Cmax of the agent was known.
Compounds. The drugs and investigational agents: cirtuvivint (SM08502; NSC835563), CC-671 (NSC850746), vemurafenib (NSC761431), tapotoclax (NSC804041), sotorasib (NSC818433), adagrasib (NSC831453), MRTX-1133 (NSC836407), BAY2416964 (NSC825713), copanlisib (NSC816437), inavolisib (NSC800729), abemaciclib (NSC768073), osimertinib (NSC779217), entinostat (NSC756642), eltanexor (KPT-8602, NSC794443), venetoclax (NSC766270), ceralasertib (NSC777638), bortezomib (NSC756655), olaparib (NSC753686), talazoparib (NSC767125), alisertib (NSC759677), peposertib (NSC802822), gemcitabine (NSC613327), 5-fluorouracil (NSC19893), SN-38 (NSC673596), oxaliplatin (NSC266046), paclitaxel (NSC125973), and doxorubicin (NSC123127), were obtained from the National Cancer Institute (NCI) Developmental Therapeutics Program Chemical Repository. The FDA-approved anticancer drug set is available from the Developmental Therapeutics Program at https://dtp.cancer.gov/organization/dscb/obtaining/available plates.htm. […] The stock solutions were prepared in dimethyl sulfoxide (DMSO, Sigma-Aldrich, St. Louis, MO, cat. D2650), except for the platinum complexes which were prepared in saline (Quality Biological, Gaithersburg, MD, cat. 114-055-101), at 800-fold the tested concentration and stored at -70 degrees C prior to their use. All drugs and investigational agents were tested over a range starting from a high concentration at or near the clinical Cmax and decreasing in half-log increments. If the clinical Cmax for an agent had not been determined, the highest concentration tested was 10 microM.
Cell Culture. All cells were maintained in an incubator at 37 degrees C and 5% CO2 with 95% humidity. The PDC lines were cultured according to standard operating procedures established by the NCI PDMR. Briefly, all PDCs were thawed and cultured in Matrigel-coated flasks prepared with a working solution of 1X Ham's F-12 nutrient mix, without supplementation (Invitrogen, Waltham, MA, cat. 11765054), 100 U/mL penicillin-streptomycin (Invitrogen, cat. 15140122), and 2.5% Matrigel (Corning Inc., Corning, NY, cat. 354248) for the first three passages. The 947758-054-R-J2-PDC line was cultured in 6B/Colon 1A media, which includes advanced DMEM/F-12 (Thermo Fisher Scientific, cat. 12634028), 10 mM HEPES (Thermo Fisher Scientific, cat. 15630080), 1X GlutaMAX supplement (Thermo Fisher Scientific, cat. 35050061), 0.1 mg/mL primocin (InvivoGen, cat. ant-pm-2), 10% defined fetal bovine serum, heat inactivated (HyClone Laboratories Inc., cat. SH30070.03HI), 1.25 mM N-Acetyl-L-cysteine (Sigma-Aldrich, cat. A9165), 10 mM nicotinamide (Sigma-Aldrich, cat. N0636), 1X B-27 supplement (Thermo Fisher Scientific, cat. 17504044), 1X N-2 supplement (Thermo Fisher Scientific, cat. 17502048), and 10 microM Y-27632 dihydrochloride (Tocris Bioscience, cat. 1254). The 876862-298-R-J1-PDC was cultured in 6E media, which includes all 6B/Colon 1A media components plus 50% L-WRN conditioned media (ATCC, cat. CRL-3276), 50 ng/mL recombinant human EGF recombinant protein (hEGF; Thermo Fisher Scientific, cat. PHG0311), 10 ng/mL recombinant human fibroblast growth factor 10 (hGFG-10; PeproTech, cat. 100-26), 1 ng/mL recombinant human fibroblast growth factor 2 (hFGF-2; PeproTech, cat. 100-18B), and 1 µM prostaglandin E2 (PGE2; Tocris, cat. 2296). The 227483-062-R1-J1-PDC line was cultured in Panc media, containing all 6E components except hFGF-2, with the addition of 500 nM SB-431542 (Selleckchem, cat. S1067) and 10 nM gastrin (Tocris, cat. 3006). […]
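Also: viability measured after seven days of drug exposure.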
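For viability, T/C in this document: luminescence signal used as surrogate for viable cell amount; 100% = DMSO vehicle control wells.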

IC50 | SMILES | further results
11.8 nM [2023-07] and 253 nM [2023-08] | CCc1c2c(nc3ccc(O)cc13)-c1cc3c(c(=O)n1C2)COC(=O)[C@]3(O)CC | –
22.8 nM [2023-07] and > 1 µM [2023-08] | CCN1CCN(Cc2ccc(Nc3ncc(F)c(-c4cc(F)c5nc(C)n(C(C)C)c5c4)n3)nc2)CC1 | –
41.3 nM [2023-07] and 499 nM [2023-08] | Nc1ccn(C2OC(CO)C(O)C2(F)F)c(=O)n1 (configuration not stated) | –
– | CNC(=O)c1ccc(Nc2nc(OC3CCCC3)c3c(-c4ccc5nc(C)oc5c4)c[nH]c3n2)c(OC)c1 | viability, T/C (compound alone 0.316 µM): 86.1, 69.6, 79, 69.5, 72.8, 72.3, 76.4, 73.7, 74.2, 79.1, 57, 78.9%
187 nM [2023-07] and > 3 µM [2023-08] | NC(=O)C(=Cn1cnc(-c2cc(C(F)(F)F)cc(C(F)(F)F)c2)n1)c1cncnc1 | –
– | CN1CCN(c2cc(C(=O)Nc3cc4cc(-c5cnn(C)c5)ccc4cn3)ccn2)CC1 | viability, T/C (compound alone 0.0316 µM): 65.6, 61.3, 84.4, 88.6, 77.5, 90.7, 90.6, 86.8, 97.2, 108, 84.8, 116%; viability, T/C (compound alone 0.1 µM): 29.4, 40.4 (2×), 58.2, 56.7, 50.5, 61, 42.3, 32.6, 58.7, 57.4, 47.5%

Source: PubChem BioAssay AID2060626 (Molecular Pharmacology Branch, DTP, NCI, 2025)
